According to the supplement of paper PMC12645437, “Orthogonal IMiD-Degron Pairs Induce Selective Protein Degradation in Cells” (ACS Chemical Biology, 2025):
This is one part of the list.

biological target: no compound (DMSO); assay: log2 fold change of degron read counts, EGFP-low vs EGFP+ sorted cells; higher = lower degron-EGFP level without compound (poor expression or instability); settings: compound: DMSO control; 18 h
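Also: jurkat cells carrying a lentiviral library of mutant zinc finger degrons fused to EGFP plus mCherry, mCherry+ cells FACS sorted, degron abundance counted by next-generation sequencing.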

| Sequence | log2 fold change of degron read counts |
| --- | --- |
| FHCDVCGAWFTQKGNLLRHIKL | 0.0534 |
| FQCPICGADFTQKGNLLRHIKL | -0.879 |
| FDCEICGALFTQKGNLLRHIKL | -0.698 |
| FMCEICGRHFTQKGNLLRHIKL | -0.936 |
| FGCDICGAWFTQKGNLLRHIKL | -0.139 |
| FACSVCGHHFTQKGNLLRHIKL | -0.568 |
| FQCNQCGHHFTQKGNLLRHIKL | 0.1 |
| FCCNVCGAQFTQKGNLLRHIKL | -1.26 |
| FGCSVCGHEFTQKGNLLRHIKL | -1.13 |
| FRCNICGALFTQKGNLLRHIKL | -0.286 |
| LGCNQCGFECTQKGNLLRHIKL | 0.652 |
| FWCPQCGAEFTQKGNLLRHIKL | -0.384 |
| FTCDICGAMFTQKGNLLRHIKL | -0.617 |
| FACNVCGAMFTQKGNLLRHIKL | -0.541 |
| FECEICGHGFTQKGNLLRHIKL | -1.92 |
| FICEVCGAHFTQKGNLLRHIKL | -1.24 |

| Sequence | log2 fold change of degron read counts |
| --- | --- |
| FICDICGASFTQKGNLLRHIKL | -1.98 |
| FACEICGACFTQKGNLLRHIKL | -1.34 |
| FHCNICGAFFTQKGNLLRHIKL | 0.265 |
| FRCEICGRSFTQKGNLLRHIKL | -1.26 |
| FQCNQCGHYFTQKGNLLRHIKL | -0.49 |
| LGCNQCGFQCTQKGNLLRHIKL | 0.696 |
| FRCNQCGREFTQKGNLLRHIKL | -2 |
| FHCEICGATFTQKGNLLRHIKL | -1.85 |
| LICEICGFWCTQKGNLLRHIKL | 1.21 |
| FKCEICGRPFTQKGNLLRHIKL | -1.01 |
| FSCNQCGHHFTQKGNLLRHIKL | 0.487 |
| FQCDICGAAFTQKGNLLRHIKL | -1.02 |
| FGCEICGHAFTQKGNLLRHIKL | -0.469 |
| FHCEQCGAQFTQKGNLLRHIKL | -1.73 |
| FGCNVCGAIFTQKGNLLRHIKL | 0.899 |
| FECPICGRGFTQKGNLLRHIKL | -0.4 |
